Test results as given in PubChem BioAssay AID686979 (National Center for Advancing Translational Sciences (NCATS), 2013).
The whole screen tested about 420,000 compounds, of which about 50,000 (12%) were called active. The inconclusive results got no clear call from the source; some entries with a clear call stand among them for comparison. Calls come from the whole dose curve; as a rule, active = well fitted inhibition curve with a large enough effect; inconclusive = small, poorly fitted or top-dose-only effect; inactive = flat fitted curve, though single readings scatter. Potencies of inconclusive entries are left out as doubtful fits.

Experiment: qHTS for Inhibitors of human tyrosyl-DNA phosphodiesterase 1 (TDP1): qHTS in cells in presence of CPT; note: nearly all actives have a fitted effect of over 55% in size
Settings: chicken DT40 Tdp1-/-;hTDP1 cells + 20 nM CPT, ATP luminescence, 48 h; activity change, negative = growth inhibition: at 46.2 µM (top of the series)
Procedure, shortened: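 Chicken DT40 Tdp1-/- cells stably complemented with human TDP1 were seeded at 400 cells/well in medium containing 20 nM camptothecin, exposed to pin-transferred compounds, and grown at 37 °C for at least 48 hr. Viability was read as ATP luminescence.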
% is set by controls: 0 for no effect and ±100 for the full control effect; potency is the fitted concentration of half-maximal effect; tags give direction and shape of the fitted curve.

Row | Compound | Potency | activity change, negative = growth inhibition
1 | CC(=O)c1ccc(NC(=O)c2cc(CC(C)C)nc3ccccc23)cc1 | inconclusive [inhibitor, single point] | 
2 | Oc1c(N=NC(=S)Nc2ccccc2F)c2ccccc2n1Cc1ccccc1 | active: 7.31 µM | 
3 | Cc1ccc(N2CCN(S(=O)(=O)c3nnc(NC(=O)c4ccc(C(C)C)cc4)s3)CC2)cc1 | inconclusive [inhibitor, single point] | 
4 | Cc1ccc(-c2nc(S(=O)(=O)c3ccc(C)cc3)c(N3CCCCCC3)o2)cc1 | inconclusive [inhibitor, single point] | 
5 | CCCC1(C(=O)OCC)NC(c2ccc(OC)cc2OC)C2C(=O)N(c3ccccc3)C(=O)C21 (stereo not given) | inconclusive [inhibitor, single point] | 
6 | O=C(NCc1ccccc1)c1cc(C2CCCCN2C(=O)c2ccc3c(c2)CCO3)on1 (stereo not given) | inconclusive [inhibitor, single point] | 
7 | CCCCNC(=O)C[C@@H]1C[C@@]2(C(=O)OC)CCCCC=C2N(CCC2=CCCCC2)C1=O | inconclusive [inhibitor, single point] | 
8 | O=C1CCC(C(=O)NCCN2C(=O)S/C(=C\c3cccnc3)C2=O)=NN1 | inconclusive [inhibitor, single point] | 
9 | COc1cc(Nc2ccn3nccc3n2)cc(OC)c1OC | inconclusive [inhibitor, single point] | 
10 | O=C1COc2ccc(-c3csc(-c4ccc(Cl)cc4)n3)cc2N1 | inconclusive [inhibitor, single point] | 
11 | CN=C1NN=C(c2cc(C)n(-c3c(C)n(C)n(-c4ccccc4)c3=O)c2C)CS1 |  | inactive: -5.13%
12 | O=C1CC(C2CCCO2)C(=O)N1c1ccc(Cl)c(Cl)c1 (stereo not given) | inconclusive [inhibitor, full curve, poor fit] | 
13 | COc1ccc(CN2C(=O)CSCC2(C)C(=O)NCc2ccccc2)cc1 (stereo not given) | inconclusive [inhibitor, single point] | 
14 | O=C(NN=Cc1ccc2c(c1)CCC2)c1cccc([N+](=O)[O-])c1 |  | inconclusive: -32.8% [inhibitor]
15 | Cc1cc(=O)[nH]c2nnc(SCc3ccc(Cl)cc3)n12 |  | inactive: -26.1%
16 | COc1cc(OC)c2c(-c3cccc(-c4ccc(F)c(Cl)c4)c3)cc(=O)oc2c1 | inconclusive [inhibitor, single point] | 
17 | CC(CNCCCn1ccc(NC(=O)OCc2ccccc2)nc1=O)c1ccccc1 (stereo not given) | active: 23.1 µM | 
18 | COC1OC(CO)C(N(C)C(C)=O)C1O (stereo not given) |  | inactive: -10.8%
19 | COc1ccc(C2=CC(c3ccc(Cl)cc3)n3cnnc3N2)cc1OC (stereo not given) | inconclusive [inhibitor, single point] | 
20 | CCn1c(C)nc2cc(C(=O)NNC(=S)Nc3ccccc3Cl)ccc21 |  | inactive: -24.3%
21 | C=CCC[C@@H](Cc1ccc(F)cc1)C(=O)OC[C@H](Cc1c[nH]c2ccccc12)NC(=O)[C@@H](CC=C)CC(=O)N[C@@H](CO)Cc1ccccc1 | active: 20.6 µM | 
22 | CN(C1CCCCC1)S(=O)(=O)c1ccc(NC(=O)C2CCCCC2C(=O)O)cc1 (stereo not given) |  | inactive: 28.3%
23 | Cc1ccc(Nc2nc(-c3ccc(S(=O)(=O)N4CCOCC4)cc3)cs2)cc1 | inconclusive [inhibitor, single point] | 

Row | Compound | Potency | activity change, negative = growth inhibition
24 | O=[N+]([O-])c1cc(-c2n(-c3ccccn3)c3ccccc3[n+]2-c2ccccn2)ccc1Cl | active: 16.4 µM | 
25 | COc1cc(C(=O)Nc2cc(C)ccn2)ccc1OCC(=O)N1CCOCC1 |  | inactive: -4.99%
26 | O=C(Oc1csc(=S)n1C(=O)c1ccccc1)c1ccccc1 | inconclusive [inhibitor, single point] | 
27 | C(=C\c1ccnc2ccccc12)/c1cccnc1 | inconclusive [inhibitor, single point] | 
28 | Nc1nc(N)nc(-c2ccccc2O)n1 |  | inactive: 0.632%
29 | CCc1nnc(SCC(=O)Nc2ccc(F)cc2)o1 |  | inactive: 0.906%
30 | Cc1ccc2nc(SCC(=O)Nc3cccc(S(=O)(=O)N(C)C)c3)[nH]c2c1 | inconclusive [inhibitor, single point] | 
31 | O=C(c1ccco1)N1CCN(C(c2ccccc2Cl)c2nnnn2Cc2cccs2)CC1 (stereo not given) | inconclusive [inhibitor, single point] | 
32 | Clc1ccc(-c2csc(Nc3ccccc3)[n+]2Cc2ccco2)c(Cl)c1 | inconclusive [inhibitor, single point] | 
33 | CN(Cc1cnn(Cc2ccccc2)c1)C(=O)c1cccc(S(=O)(=O)N2CCOCC2)c1 | active: 7.31 µM | 
34 | COc1ccccc1-c1cc(NC(=O)COc2ccc(C)c(C)c2)n(-c2ccccc2)n1 | inconclusive [inhibitor, partial curve] | 
35 | COCC(=O)N1CCC2(CC1)CN(Cc1ccc(C#N)cc1)C2 |  | inactive: -47.7%
36 | O=C(Nc1cccc2ncccc12)c1ccc(Br)c([N+](=O)[O-])c1 | inconclusive [inhibitor, single point] | 
37 | Cc1ccc(Cl)cc1-n1ncc2c(N3CCC(C)CC3)ncnc21 | active: 23.1 µM | 
38 | Cn1c(SCC(=O)Nc2ccc3cn[nH]c3c2)nnc1-c1cnccn1 |  | inconclusive: -22.9% [inhibitor]
39 | Cc1cccc(N(C)S(=O)(=O)c2c(C(=O)N3CCCCCC3)c(C)n(C)c2C)c1 | active: 16.4 µM | 
40 | Cc1ccc(Nc2nc(NCCO)c3ccccc3n2)cc1C | inconclusive [inhibitor, single point] | 
41 | NC(=S)NNc1cccc2cccnc12 | active: 6.51 µM | 
42 | COc1ccc(NC(=O)c2c(NCc3cccc(F)c3)sc3c2CCCC3)c(OC)c1 | inconclusive [inhibitor, single point] | 
43 | CCOc1ccc2nc(NC(=O)CSc3nc(SC)ns3)sc2c1 | inconclusive [inhibitor, partial curve] | 
44 | O=C(NCc1ccccc1)C1CCN(S(=O)(=O)c2ccc3[nH]c(=O)ccc3c2)CC1 |  | inactive: -5.45%
45 | CC(=O)Nc1ccc(-c2csc(-c3cccnc3)n2)cc1 | inconclusive [inhibitor, partial curve] | 
